# The antibiotic and cytotoxicity screens of Wong et al. (2023)
# This is one part of the list.
# Assays:
# HSkMC = human skeletal muscle cells; test: cytotoxicity call (relative viability < 0.9); details: 10 µM
# HepG2 = test: cytotoxicity call (relative viability < 0.9); details: 10 µM
# S. aureus RN4220 = test: growth inhibition call (relative growth <= 0.2); details: 50 µM
Compound,cytotoxicity call (HSkMC),cytotoxicity call (HepG2),growth inhibition call (S. aureus RN4220)
C[C@@H]1CCCCO[C@H](CN(C)C(=O)CCC(F)(F)F)[C@H](C)CN([C@H](C)CO)C(=O)c2cc(NC(=O)CCC(F)(F)F)ccc2O1,inactive,inactive,inactive
C[C@@H]1CN([C@H](C)CO)S(=O)(=O)c2ccc(C#Cc3cccnc3)cc2O[C@@H]1CN(C)CC1CCOCC1,inactive,inactive,inactive
S=C1NCN(Cc2ccncc2)CN1,inactive,inactive,inactive
COc1cccc(C(=O)Nc2ccc3c(c2)C(=O)N(C)[C@H]2CC[C@@H](CC(=O)NCC4CC4)O[C@H]2CO3)c1,inactive,inactive,inactive
Cc1ccc(S(=O)(=O)N(C)C[C@H]2Oc3ncc(Br)cc3C(=O)N([C@H](C)CO)C[C@@H]2C)cc1,inactive,inactive,inactive
C[C@H]1CCc2[nH]c3ccccc3c2C1,inactive,active,inactive
CC(=O)NCCCC[C@@H]1NC(=O)[C@H]2C[C@@H](C(=O)NCCCC[N+](C)(C)C)[C@@H](c3cccc(OCCO)c3)N2C1=O,inactive,inactive,inactive
COc1ccc(CN(C)C[C@H]2OCCCC[C@@H](C)Oc3ccc(NC(=O)c4ccccc4)cc3C(=O)N([C@@H](C)CO)C[C@@H]2C)cc1,inactive,inactive,inactive
C[C@@H]1O[C@@H](O[C@@H]2[C@@H](O)[C@H](OCCc3ccc(O)c(O)c3)O[C@H](COC(=O)/C=C/c3ccc(O)c(O)c3)[C@H]2O)[C@H](O)[C@H](O)[C@H]1O,inactive,inactive,inactive
O=C(O)[C@H]1O[C@@H](Oc2c(-c3ccc(O)cc3)oc3cc(O)cc(O)c3c2=O)[C@H](O)[C@@H](O)[C@@H]1O,inactive,inactive,inactive
C[C@H]1CN([C@@H](C)CO)S(=O)(=O)c2ccc(C#Cc3ccncc3)cc2O[C@H]1CN(C)C(=O)C1CCCCC1,inactive,inactive,inactive
C[C@@H]1CN([C@@H](C)CO)C(=O)c2cccc(NC(=O)c3nc4ccccc4s3)c2O[C@@H]1CN(C)Cc1ccc(-c2ccccc2)cc1,inactive,inactive,inactive
Cc1noc(C)c1NC(=O)Nc1ccc2c(c1)CC(=O)N([C@H](C)CO)C[C@H](C)[C@@H](CN(C)Cc1ccc(C(F)(F)F)cc1)O2,inactive,inactive,inactive
C[C@@H]1CCCCO[C@@H](CN(C)C(=O)C2CCCCC2)[C@H](C)CN([C@H](C)CO)C(=O)c2cc(NC(=O)C3CCCCC3)ccc2O1,inactive,inactive,inactive
Cc1ccc(S(=O)(=O)N(C)C[C@H]2Oc3c(NS(=O)(=O)c4ccccc4)cccc3C(=O)N([C@@H](C)CO)C[C@@H]2C)cc1,inactive,inactive,inactive
CC(C)NC(=O)N(C)C[C@H]1Oc2c(NS(=O)(=O)c3cccs3)cccc2C(=O)N([C@H](C)CO)C[C@@H]1C,inactive,inactive,inactive
COCC(=O)N1CC[C@]2(CC1)CN([C@H](CO)c1[nH]c3cc(ccc3c12)OC)C(=O)Nc1ccccc1F,inactive,inactive,inactive
Cc1ccc(S(=O)(=O)N(C)C[C@H]2OCCCC[C@@H](C)Oc3ccc(NC(=O)Nc4ccc(F)cc4)cc3C(=O)N([C@H](C)CO)C[C@@H]2C)cc1,inactive,inactive,inactive
C[C@H](O)C#Cc1cnc2c(c1)C(=O)N([C@H](C)CO)C[C@@H](C)[C@@H](CN(C)Cc1cncnc1)O2,inactive,inactive,inactive
O=C(C[C@@H]1CC[C@@H]2[C@H](COC[C@H](O)CN2S(=O)(=O)c2ccccc2)O1)N[C@@H]1CCN(Cc2ccccc2)C1,inactive,inactive,inactive
CNS(=O)(=O)c1cccs1,inactive,inactive,inactive
CCN1CCN(C(=O)N[C@@H](C(=O)N[C@@H]2C(=O)N3[C@@H]2SC(C)(C)[C@@H]3C(=O)O)c2ccccc2)C(=O)C1=O,inactive,inactive,active
C[C@@H](O)[C@@H](O)[C@@H](O)C/C=N/NC(=O)CCCCCCC(=O)NO,inactive,inactive,inactive
NC(=O)c1c(F)c(F)c(N)c(F)c1F,inactive,inactive,inactive
CC(C)C1CCC(C(=O)NC(Cc2ccccc2)C(=O)O)CC1 (stereo not given),inactive,inactive,inactive
NCc1ccc(-c2ncccn2)cc1,inactive,inactive,inactive
COCC#Cc1ccc2c(c1)O[C@@H](CN(C)Cc1ccc(F)cc1)[C@@H](C)CN([C@H](C)CO)S2(=O)=O,inactive,inactive,inactive
C[C@@H]1CN([C@@H](C)CO)C(=O)c2cc(NC(=O)c3ccncc3)ccc2O[C@@H]1CN(C)S(=O)(=O)c1ccc(F)cc1,inactive,inactive,inactive

Compound,cytotoxicity call (HSkMC),cytotoxicity call (HepG2),growth inhibition call (S. aureus RN4220)
Cc1noc(C)c1NC(=O)N(C)C[C@@H]1Oc2ccc(NC(=O)CCN3CCOCC3)cc2C(=O)N([C@@H](C)CO)C[C@@H]1C,inactive,inactive,inactive
COc1ccc(NC(=O)Nc2ccc3c(c2)C(=O)N([C@H](C)CO)C[C@@H](C)[C@@H](CN(C)S(=O)(=O)c2ccc(F)cc2)OCCCC[C@@H](C)O3)cc1,inactive,inactive,inactive
C[C@@H]1CN([C@H](C)CO)C(=O)c2cc(NC(=O)Cn3cnnn3)ccc2O[C@H]1CN(C)Cc1ccc2c(c1)OCO2,inactive,inactive,inactive
Cc1ccc(S(=O)(=O)Nc2ccc3c(c2)C(=O)N([C@H](C)CO)C[C@H](C)[C@@H](CN(C)C(=O)NC2CCCCC2)OCCCC[C@@H](C)O3)cc1,inactive,inactive,inactive
COc1ccc(S(=O)(=O)Nc2cccc3c2O[C@H](CN(C)C(=O)Nc2c(C)noc2C)[C@@H](C)CN([C@H](C)CO)C3=O)cc1,inactive,active,inactive
C[C@H]1CN([C@@H](C)CO)C(=O)Cc2cc(NS(=O)(=O)c3cn(C)cn3)ccc2O[C@@H]1CN(C)Cc1ccc2c(c1)OCO2,inactive,inactive,inactive
Cc1noc(C)c1NC(=O)N(C)C[C@@H]1Oc2cc(Br)ccc2S(=O)(=O)N([C@H](C)CO)C[C@@H]1C,inactive,inactive,inactive
C[C@H]1CN([C@@H](C)CO)C(=O)c2cc(NS(C)(=O)=O)ccc2O[C@H]1CN(C)Cc1ccc(C(F)(F)F)cc1,inactive,inactive,inactive
C[C@@H]1CN([C@H](C)CO)C(=O)CCCn2cc(nn2)CO[C@H]1CN(C)S(=O)(=O)c1ccc(Oc2ccccc2)cc1,inactive,inactive,inactive
COc1ccc(S(=O)(=O)Nc2ccc3c(c2)C(=O)N([C@H](C)CO)C[C@H](C)[C@H](CN(C)S(=O)(=O)c2ccc(Cl)cc2)OCCCC[C@@H](C)O3)cc1,inactive,inactive,inactive
Cc1cc(-c2ccccc2)nnc1NCCN1CCOCC1.Cl.Cl,inactive,inactive,inactive
COC(=O)OC[C@H]1O[C@@H](Oc2cc(C)cc(O)c2C(=O)CCc2ccc3occc3c2)[C@H](O)[C@@H](O)[C@@H]1O,inactive,inactive,inactive
C[C@@H]1CN([C@@H](C)CO)C(=O)c2cccc(NC(=O)c3nc4ccccc4s3)c2O[C@@H]1CN(C)S(C)(=O)=O,inactive,inactive,inactive
C[C@@H]1CN([C@H](C)CO)C(=O)Cc2cc(NC(=O)Cn3cnnn3)ccc2O[C@H]1CN(C)C(=O)Nc1ccc(C(F)(F)F)cc1,inactive,inactive,inactive
Cc1ccc(S(=O)(=O)Nc2ccc3c(c2)C(=O)N([C@H](C)CO)C[C@@H](C)[C@@H](CN(C)S(=O)(=O)c2ccc(F)cc2)OCCCC[C@H](C)O3)cc1,inactive,inactive,inactive
C[C@H](CO)N1C[C@H](C)[C@@H](CN(C)C(=O)Nc2ccc(F)cc2)Oc2ccc(NS(=O)(=O)c3cn(C)cn3)cc2CC1=O,inactive,inactive,inactive
COc1ccc(-c2cn(CCNC(=O)[C@H](Cc3ccccc3)NS(=O)(=O)c3ccc(C)cc3)nn2)cc1OC,inactive,inactive,inactive
CCCCCCCCCCCCCCCC[N+](C)(C)Cc1ccccc1.[Cl-],active,active,inactive
C[C@H](CO)N1C[C@H](C)[C@@H](CN(C)S(=O)(=O)c2ccc(C#N)cc2)OCc2cn(nn2)CCCC1=O,inactive,inactive,inactive
C[C@@H]1CN([C@H](C)CO)C(=O)c2cc(NC(=O)c3ccncc3)ccc2O[C@@H](C)CCCCO[C@H]1CN(C)Cc1ccc(Cl)c(Cl)c1,inactive,inactive,inactive
CN(C)CCCNC(=O)C[C@H]1CC[C@H]2[C@@H](COc3ccc(NC(=O)NC4CCCC4)cc3C(=O)N2C)O1,inactive,inactive,inactive
CO[C@H]1CN(C)C(=O)c2cc(NC(=O)CC(F)(F)F)ccc2OC[C@@H](C)N(C(=O)C2CCOCC2)C[C@@H]1C,inactive,inactive,inactive
C[C@@H]1CN([C@@H](C)CO)C(=O)c2cc(NC(=O)CCC(F)(F)F)ccc2O[C@@H]1CN(C)C(=O)Nc1ccc(C(F)(F)F)cc1,inactive,inactive,inactive
C[C@@H]1CN([C@H](C)CO)C(=O)c2ccccc2-c2ccccc2CO[C@@H]1CN(C)C(=O)Nc1ccc(F)cc1,inactive,inactive,inactive
COCCOC(=O)N1C(=O)[C@@]2(c3ccccc31)[C@H](c1ccc(O)cc1)N1[C@H](c3ccccc3)[C@H](c3ccccc3)OC(=O)[C@H]1[C@@H]2C(=O)Nc1nc2ccccc2s1,inactive,inactive,inactive
C[C@H](CO)N1C[C@H](C)[C@@H](CN(C)C(=O)Nc2ccc3c(c2)OCO3)OCCCC[C@H](C)Oc2ccc(NS(=O)(=O)c3cccs3)cc2C1=O,inactive,inactive,inactive
Cc1ccc(S(=O)(=O)N(C)C[C@H]2Oc3ccc(NC(=O)Nc4ccc(C(F)(F)F)cc4)cc3CC(=O)N([C@@H](C)CO)C[C@@H]2C)cc1,inactive,active,inactive
